The values below come from patent publication US9957247B2, “SecA inhibitors and methods of making and using thereof” (Georgia State University Research Foundation, Inc., priority 2012, dated 2018).

In brackets after ≈: the same amount, converted by molar mass.

For experiment [1], the system named is E. coli NR698. The experiment can be described thus: Plate assay, bacteriostatic effect, E. coli NR698. The class given is cell-based. As to conditions: fluorescein analogues. The protocol: Plate assay: A 0.5 mL culture of bacterial cells (exponential phase, OD600=0.5) was mixed with LB (4 mL) supplemented with glucose (0.2%) and soft agar (0.75%) and then poured into petri dishes. After the soft agar solidified, test compound (1 mL) was spotted on the surface of the culture. Bacteriostatic effects were judged by the appearance of a clear zone of growth inhibition after overnight incubation at 37° C.

Experiment [2] concerns E. coli NR698. The experiment can be described thus: microbe, parasite or virus in culture. As to conditions: Escherichia coli, NR698, read-out: MIC, E. coli NR698.
The test system of a further experiment is S. aureus K1758 (NorA−). The experiment can be described thus: microbe, parasite or virus in culture. The note with it: Staphylococcus aureus, read-out: Bacteriostatic effect, MIC, NorA− K1758.
The next experiment has as its system S. aureus K2361 (NorA++). The experiment can be described thus: microbe, parasite or virus in culture. As to conditions: Staphylococcus aureus, read-out: Bacteriostatic effect, MIC, NorA++ K2361.
The test system of a further experiment is S. aureus K2068 (MepA++). The experiment can be described thus: microbe, parasite or virus in culture. As to conditions: Staphylococcus aureus, read-out: Bacteriostatic effect, MIC, MepA++ K2068.
For another experiment, the system named is S. aureus K2908 (MepA−). Nature of the experiment: microbe, parasite or virus in culture. The note with it: Staphylococcus aureus, read-out: Bacteriostatic effect, MIC, MepA− K2908.
Experiment [3] concerns E. coli NR698. The note with it: 100 μM, one-hour treatment.

Regarding Dinitrofluorescein [DN], the “MIC values, plate assays” value in the experiment with E. coli NR698 [1] is on record as “millimolar range”.

Turning to `O=C([O-])c1ccccc1-c1c2ccc(=O)c(I)c-2oc2c(I)c([O-])ccc12.[Na+].[Na+]` [DI, Diiodofluorescein, reference compound], the “MIC values, plate assays” value against E. coli NR698 [1] is listed as “millimolar range”.

On to `Oc1c(Br)cc2c(c1Br)Oc1c(cc(Br)c(O)c1Br)C2C1CCCC1` [Compound 23a, 2,4,5,7-Tetrabromo-9-cyclopentyl-9H-xanthene-3,6-diol], for which the MIC in the experiment on E. coli NR698 [2] came out at 2 µM (≈ 1.2 µg/mL).

Regarding `Oc1cc2c(cc1I)C(C1CCCC1)c1cc(I)c(O)c(I)c1O2` (centres unmarked) [Compound 23c], the MIC with E. coli NR698 [2] was 6 µM (≈ 3.96 µg/mL).

Regarding `O.O=C([O-])c1ccccc1-c1c2cc(I)c(=O)c(I)c-2oc2c(I)c([O-])c(I)cc12.[Na+].[Na+]` [EB, Erythrosin B], the “MIC values, plate assays” value against E. coli NR698 [1] is reported as “micromolar range”.

With `Oc1ccc2c(c1)Oc1cc(O)ccc1C2C1CCCC1` [SCA-41], the MIC with S. aureus K1758 (NorA−) turned out to be 14.1 µg/mL (≈ 49.9 µM); in the experiment on S. aureus K2361 (NorA++), 11.8 µg/mL (≈ 41.8 µM); with S. aureus K2068 (MepA++) it was 11.8 µg/mL (≈ 41.8 µM); in the experiment with S. aureus K2908 (MepA−), 14.1 µg/mL (≈ 49.9 µM).

Turning to `O=C(O)c1c(Cl)c(Cl)c(Cl)c(Cl)c1-c1c2cc(I)c(=O)c(I)c-2oc2c(I)c(O)c(I)cc12` [RB, Rose Bengal], the MIC in the experiment on S. aureus K1758 (NorA−) turned out to be 22.3 µg/mL (≈ 22.9 µM); in the experiment on S. aureus K2361 (NorA++) it was 34.6 µg/mL (≈ 35.5 µM); in the experiment with E. coli NR698 [2], 5 µM (≈ 4.87 µg/mL); in the experiment with S. aureus K2068 (MepA++), 17.5 µg/mL (≈ 18 µM); with S. aureus K2908 (MepA−), 10.6 µg/mL (≈ 10.9 µM). Also, the “Decrease of cell survival (CFU)” value with E. coli NR698 [3] is recorded as “about 10 log units”. Further, the “MIC values, plate assays” value in the experiment on E. coli NR698 [1] is given as “micromolar range”.

As to `Oc1c(I)cc2c(c1I)Oc1c(cc(I)c(O)c1I)C2C1CCCC1` [Compound 23b, 9-Cyclopentyl-2,4,5,7-tetraiodo-9H-xanthene-3,6-diol], the MIC in the experiment on E. coli NR698 [2] came to 1 µM (≈ 0.786 µg/mL).

`CCCCCCC1c2ccc(O)cc2Oc2cc(O)ccc21` [Compound 22c, 9-Hexyl-9H-xanthene-3,6-diol]: the MIC in the experiment with E. coli NR698 [2] worked out at 19 µM (≈ 5.67 µg/mL).

In the case of `Oc1ccc2c(c1)Oc1cc(O)ccc1C2C1CCCC1` [Compound 22a, 9-Cyclopentyl-9H-xanthene-3,6-diol], the MIC with E. coli NR698 [2] came out at 45 µM (≈ 12.7 µg/mL).

Take `CC(C)C1c2ccc(O)cc2Oc2cc(O)ccc21` [Compound 22b, 9-Isopropyl-9H-xanthene-3,6-diol]: in the experiment with E. coli NR698 [2], the MIC turned out to be 90 µM (≈ 23.1 µg/mL).

Consider `Oc1ccc2c(c1)Oc1cc(O)ccc1C2C1CCCCC1` [Compound 22d, 9-Cyclohexyl-9H-xanthene-3,6-diol], for which the MIC with E. coli NR698 [2] is 25 µM (≈ 7.41 µg/mL).

For the compound `CC(C)C1c2cc(I)c(O)c(I)c2Oc2c1cc(I)c(O)c2I` [Compound 23d, 2,4,5,7-Tetraiodo-9-isopropyl-9H-xanthene-3,6-diol], the MIC in the experiment with E. coli NR698 [2] stood at 4 µM (≈ 3.04 µg/mL).

As for `CCCCCCC1c2ccc(O)cc2Oc2cc(O)ccc21` [SCA-50], the MIC in the experiment with S. aureus K1758 (NorA−), with S. aureus K2361 (NorA++), with S. aureus K2068 (MepA++) and in the experiment on S. aureus K2908 (MepA−) was 3.7 µg/mL (≈ 12.4 µM) each time.
